SMILES strings stand for the structures. About 14,000 (4.5%) of roughly 310,000 compounds showed an effect of 50% or more. Effects have a minus sign here. The list shows a part of the results.
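Note: peak tail current of the secondary pulse compared with the same well before compound.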

human ether-à-go-go-related gene (hERG) potassium channel, sequence (Q12809 whole entry, looked up): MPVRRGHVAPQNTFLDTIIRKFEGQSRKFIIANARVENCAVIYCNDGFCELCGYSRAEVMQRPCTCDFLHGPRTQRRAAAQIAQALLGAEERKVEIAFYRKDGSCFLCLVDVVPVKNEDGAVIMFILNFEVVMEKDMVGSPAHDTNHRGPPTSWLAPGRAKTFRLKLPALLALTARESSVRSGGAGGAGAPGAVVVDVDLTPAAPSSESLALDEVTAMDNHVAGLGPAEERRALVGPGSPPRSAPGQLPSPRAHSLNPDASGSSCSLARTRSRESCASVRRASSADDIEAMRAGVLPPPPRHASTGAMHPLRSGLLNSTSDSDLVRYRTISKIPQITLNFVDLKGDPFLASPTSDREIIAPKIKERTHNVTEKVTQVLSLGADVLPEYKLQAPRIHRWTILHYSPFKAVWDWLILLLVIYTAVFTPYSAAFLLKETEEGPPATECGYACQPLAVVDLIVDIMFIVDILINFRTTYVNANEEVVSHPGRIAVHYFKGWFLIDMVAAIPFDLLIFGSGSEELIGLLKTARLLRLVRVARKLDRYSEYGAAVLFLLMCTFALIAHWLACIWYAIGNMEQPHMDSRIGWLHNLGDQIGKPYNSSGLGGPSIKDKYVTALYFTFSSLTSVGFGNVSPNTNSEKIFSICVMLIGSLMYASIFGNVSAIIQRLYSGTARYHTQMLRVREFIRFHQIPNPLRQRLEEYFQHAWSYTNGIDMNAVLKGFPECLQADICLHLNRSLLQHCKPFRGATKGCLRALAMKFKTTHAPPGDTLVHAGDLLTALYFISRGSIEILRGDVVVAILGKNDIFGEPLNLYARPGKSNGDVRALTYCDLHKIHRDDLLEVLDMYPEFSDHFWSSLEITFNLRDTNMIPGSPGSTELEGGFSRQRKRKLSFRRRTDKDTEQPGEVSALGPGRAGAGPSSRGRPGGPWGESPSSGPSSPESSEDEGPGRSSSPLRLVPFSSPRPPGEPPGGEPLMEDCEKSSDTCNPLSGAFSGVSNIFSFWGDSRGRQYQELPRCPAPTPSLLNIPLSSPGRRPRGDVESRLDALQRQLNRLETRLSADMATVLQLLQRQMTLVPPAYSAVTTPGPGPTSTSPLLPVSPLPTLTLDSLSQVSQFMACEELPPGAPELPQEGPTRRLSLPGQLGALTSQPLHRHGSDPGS

The assay concerns the target human ether-à-go-go-related gene (hERG) potassium channel (human, UniProt Q12809). The assay is described as follows: primary screen, population patch clamp on CHO cells stably expressing hERG.
`CCN(C(=O)Cn1c(=O)oc2ccccc21)c1c(N)n(Cc2ccccc2)c(=O)[nH]c1=O`: the “hERG current change (%, negative = inhibition) at 10uM” value was 6.64%.

For `Cc1cccc(C(=O)NCC2CCN(C(=O)c3cccc(C)c3)CC2)c1`, the “hERG current change (%, negative = inhibition) at 10uM” value is given as -51.2%.

Consider `CN(C(=O)COC(=O)c1cccnc1Nc1ccccc1F)C1CCS(=O)(=O)C1` (stereo not shown), for which the “hERG current change (%, negative = inhibition) at 10uM” value is -29%.

Take `COc1ccc(CN2CCN(C(=O)CC(C)C)CC2)c2ccccc12`: the “hERG current change (%, negative = inhibition) at 10uM” value is listed as -6.55%.

For the molecule `O=C(CN1CCN(C(c2ccccc2)c2ccccc2)CC1)N1CCOCC1.O=C(O)C(=O)O`, the “hERG current change (%, negative = inhibition) at 10uM” value was -22.3%.

In the case of `CCCCc1ccc(-c2c(C#N)c(N)nc3c2CCCC3)s1`, the “hERG current change (%, negative = inhibition) at 10uM” value came to 3.9%.

Turning to `CCc1noc(C)c1C(=O)N1CCN(S(=O)(=O)c2ccc(Cl)s2)CC1`, the “hERG current change (%, negative = inhibition) at 10uM” value was -13.5%.

With `CC(C)c1ccc(C(=O)NC2=NCCS2)cc1`, the “hERG current change (%, negative = inhibition) at 10uM” value is -2.13%.

Regarding `O=C(COc1cccc2cccnc12)N1CCc2ccccc21`, the “hERG current change (%, negative = inhibition) at 10uM” value is recorded as -5.77%.

For the molecule `COc1ccc(CC(=O)NNC(=O)CSc2nc(C)c(C)c(=O)[nH]2)cc1`, the “hERG current change (%, negative = inhibition) at 10uM” value was 13.7%.

For `Cl.O=[N+]([O-])c1ccc2ncnc(N3CCN(Cc4ccc5c(c4)OCO5)CC3)c2c1`, the “hERG current change (%, negative = inhibition) at 10uM” value is on record as -24.6%.

Take `CC1CCCC(C)N1NC(=O)Cc1ccccc1` (stereo not shown): the “hERG current change (%, negative = inhibition) at 10uM” value stood at 8.75%.

`COC(=O)C(C)Oc1ccc(Cc2ncc(C(F)(F)F)cc2Cl)cc1` (stereo not shown): the “hERG current change (%, negative = inhibition) at 10uM” value came out at 7.4%.

Regarding `O=C(Cc1cc(=O)[nH]c(=O)[nH]1)N1CCC(Cc2ccccc2)CC1`, the “hERG current change (%, negative = inhibition) at 10uM” value is reported as 4.05%.

On to `O=C(CC(C(=O)NCc1ccccc1)c1nc2ccccc2c(=O)[nH]1)NCc1ccccc1` (stereo not shown), for which the “hERG current change (%, negative = inhibition) at 10uM” value is -0.509%.

Take `O=C(c1ccc2ccccc2c1)N1CCN(c2ccccc2)CC1`: the “hERG current change (%, negative = inhibition) at 10uM” value is reported as -16.4%.

For `CCOC(=O)C1(CCOC)CCN(Cc2ccncc2)CC1`, the “hERG current change (%, negative = inhibition) at 10uM” value was found to be 8.26%.

Consider `Cn1c(NN)nc2c1c(=O)n(Cc1ccccc1)c(=O)n2C`, for which the “hERG current change (%, negative = inhibition) at 10uM” value is given as 11.1%.

Regarding `Cc1ccc2[nH]c(=O)c(CN(CCCO)C(C)c3nnnn3Cc3ccco3)cc2c1` (stereo not shown), the “hERG current change (%, negative = inhibition) at 10uM” value is recorded as 1.37%.

Turning to `CC1SCC(=O)N(CC(=O)NCc2ccccc2)C1=O` (stereo not shown), the “hERG current change (%, negative = inhibition) at 10uM” value is listed as 20.4%.

With `O=C(c1ccco1)N(CCC(c1ccccc1)c1ccco1)Cc1ccc(F)cc1` (stereo not shown), the “hERG current change (%, negative = inhibition) at 10uM” value is recorded as -23.7%.

Consider `CC1(C)Cc2c(cnn2-c2cccc(F)c2)C(NC(=O)c2csnn2)C1` (stereo not shown), for which the “hERG current change (%, negative = inhibition) at 10uM” value is -78.3%.

Turning to `CCNC(=O)c1ccc(C2SCC(=O)N2Cc2ccco2)cc1` (stereo not shown), the “hERG current change (%, negative = inhibition) at 10uM” value turned out to be 1.32%.

On to `Cc1ccc(NC(=O)NC2CC(=O)N(c3ccc4c(c3)OCCO4)C2)cc1` (stereo not shown), for which the “hERG current change (%, negative = inhibition) at 10uM” value is 15.5%.

In the case of `O=S(=O)(NCc1cc(-c2ccccc2)no1)c1ccccc1Cl`, the “hERG current change (%, negative = inhibition) at 10uM” value came out at 12.4%.

Values taken from PMC4336329 (PLoS ONE, 2015).
